Tested on: R2-hPCFT#4 cells (hPCFT-expressing R2 CHO)
Settings: comparing growth inhibition of R2-hPCFT#4 and pC43-10 cells

`Nc1nc(N)c2nc(CNc3ccc(C(=O)N[C@@H](CCCNC(=O)c4ccccc4C(=O)O)C(=O)O)cc3)cnc2n1` [PT523] was tested, and the “Selectivity between hRFC and hPCFT” value was “completely selective in its effects toward hRFC over hPCFT”.

From patent US10000498B2, “Selective proton coupled folate transporter and folate receptor, and GARFTase inhibitor compounds and methods of using the same” (Duquesne University of the Holy Spirit, priority 2008, dated 2018)
